{"source": "PubChem BioAssay AID1476", "about": "(National Center for Advancing Translational Sciences (NCATS), 2009)", "note": "Several values for one entry are separate records, joined by “and”; a condition that tells them apart may be missing. Identical values can stand only once. In all, about 200,000 compounds went through this assay and about 4,500 (2.2%) were called active. This list was built around the results that the source calls inconclusive (neither active nor inactive); the mix of calls is not that of the screen. Calls follow the shape of the dose curve; as a rule, active = well fitted inhibition curve with a large enough effect; inconclusive = small, poorly fitted or top-dose-only effect, or effect the other way; inactive = flat fitted curve, though single readings scatter. Where the call is inconclusive, the potency comes from a doubtful curve fit. Potency is read from the fitted curve at half-maximal effect; tags tell the direction and shape of the fitted curve.", "data": [{"target": "Cruzipain (Trypanosoma cruzi) (UniProt P25779)", "sequence (P25779 whole entry, looked up)": "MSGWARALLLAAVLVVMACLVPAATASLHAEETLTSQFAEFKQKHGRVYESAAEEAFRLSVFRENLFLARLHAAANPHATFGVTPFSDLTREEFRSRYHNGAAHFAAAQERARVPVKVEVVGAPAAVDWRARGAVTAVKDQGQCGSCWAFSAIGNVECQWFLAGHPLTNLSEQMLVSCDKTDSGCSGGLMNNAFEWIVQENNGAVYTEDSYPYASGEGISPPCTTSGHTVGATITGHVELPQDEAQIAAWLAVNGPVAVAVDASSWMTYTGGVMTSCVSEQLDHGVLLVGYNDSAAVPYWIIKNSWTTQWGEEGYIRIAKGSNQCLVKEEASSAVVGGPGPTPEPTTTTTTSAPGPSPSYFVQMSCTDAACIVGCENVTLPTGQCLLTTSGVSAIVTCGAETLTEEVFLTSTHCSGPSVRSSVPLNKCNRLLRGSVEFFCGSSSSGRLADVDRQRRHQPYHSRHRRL", "experiment": "qHTS Assay for Promiscuous and Specific Inhibitors of Cruzain (without detergent); also: nearly all actives have a fitted effect of over 40% in size;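 as to max response, negative = inhibition: plate controls were enzyme without inhibitor for no effect and buffer without enzyme for full effect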", "conditions": "purified cruzain, Z-FR-AMC fluorescence, no detergent", "how_it_was_run": "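Purified cruzain at 1.5 nM, pre-incubated 15 min with compound at room temperature in 100 mM sodium acetate pH 5.5, 5 mM DTT, 0.00005% Triton X-100. Reaction started with 2 uM Z-FR-AMC; AMC fluorescence increase over 60 s gives rate.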", "values": [{"smiles": "CCc1cccc(NC(=O)c2ccc(NS(=O)(=O)c3c(C)noc3C)cc2)c1", "Potency": "inconclusive: 25.1 µM [activator, single point]"}, {"smiles": "O=C(CCNC(=O)c1ccccc1Cl)Nc1nc(-c2ccc3ccccc3c2)cs1", "Potency": "inconclusive: 39.8 µM [inhibitor, single point]"}, {"smiles": "CC(=O)c1c(C)[nH]c(C(=O)COC(=O)CCSc2ccccc2)c1C", "Potency": "inconclusive: 12.6 µM [inhibitor, partial curve]"}, {"smiles": "COc1ccc(C(=O)N2CCC(c3c[nH]c4ccccc34)(c3c[nH]c4ccccc34)CC2)cc1", "max response, negative = inhibition": "inactive: -15%"}, {"smiles": "CC(Oc1ccc(Cl)cc1Cl)c1nc(-c2ccc(NC(=O)c3ccncc3)cc2)no1", "note": "(stereo not given)", "Potency": "inconclusive: 20 µM [activator, single point]"}, {"smiles": "C=CCn1c(SCC(=O)c2cc(C)n(CCOC)c2C)nc2sc(C)c(C)c2c1=O", "Potency": "inconclusive: 25.1 µM [activator, single point]"}, {"smiles": "Cc1ccccc1C(=O)OCn1nnc2ccccc2c1=O", "Potency": "inconclusive: 3.98 µM [inhibitor, single point]"}, {"smiles": "CCOC(=O)N1CCN(C(=O)C2CCCN(c3nc4ccc(OCC)cc4s3)C2)CC1", "note": "(stereo not given)", "Potency": "inconclusive: 31.6 µM [activator, single point]"}, {"smiles": "COc1ccc2[nH]c(=O)c(NC(N)=S)nc2c1", "Potency": "active: 1.26 µM"}, {"smiles": "Cc1cc(C)c2nc(/N=C(\\N)NC(=O)Nc3ccccc3)nc(C)c2c1", "Potency": "inconclusive: 39.8 µM [inhibitor, single point]"}, {"smiles": "O=C(Nc1cccc([N+](=O)[O-])c1)c1ccc(CSc2ccccc2)cc1", "Potency": "inconclusive: 39.8 µM [inhibitor, single point]"}, {"smiles": "O=[N+]([O-])c1ccc2nc(SCc3cn4cc(Cl)ccc4n3)[nH]c2c1", "Potency": "inconclusive: 25.1 µM [inhibitor, single point]"}, {"smiles": "CCOc1ccc(Cn2c(CNS(=O)(=O)c3ccc([N+](=O)[O-])cc3)nc3cccnc32)cc1", "max response, negative = inhibition": "inactive: -0.0707%"}, {"smiles": "O=c1c2cc3c(nc2ncn1Cc1ccccc1F)CCCC3", "max response, negative = inhibition": "inactive: 2.81%"}, {"smiles": "O=C(CN1C(=O)C2C3CCC(C3)C2C1=O)OCC(=O)c1cccc([N+](=O)[O-])c1", "note": "(stereo not given)", "max response, negative = inhibition": "inactive: -11.2%"}, {"smiles": "CCOC(=O)c1c(C)[nH]c2cc(Br)c(OC)cc12", "Potency": "inconclusive: 39.8 µM [inhibitor, single point]"}, {"smiles": "CCN1CCN(c2cc(C)c3cc(NC(=O)/C=C/c4cccc(Cl)c4)ccc3n2)CC1", "max response, negative = inhibition": "inactive: -1.64%"}, {"smiles": "CCOC(=O)c1c(-c2ccc(-c3ccccc3)cc2)csc1NC(=O)C1C2CCC(O2)C1C(=O)O", "note": "(stereo not given)", "Potency": "inconclusive: 6.31 µM [activator, single point]"}, {"smiles": "O=C(Nc1nc2c(s1)CCCC2)c1cc(-c2ccccc2)nc2ccccc12", "Potency": "active: 20 µM"}, {"smiles": "COc1ccc(-n2cc(C(=O)NC(C)c3ccccc3)c3ccccc3c2=O)cc1", "note": "(stereo not given)", "max response, negative = inhibition": "inactive: -10%"}, {"smiles": "CCOP(=O)(OCC)C(Nc1cccc(C)c1)c1ccc(F)cc1", "note": "(stereo not given)", "Potency": "inconclusive: 25.1 µM [activator, single point]"}, {"smiles": "COCCCN1C(=O)c2[nH]nc(-c3cc(C)cc(C)c3O)c2C1c1ccc(O)c(OC)c1", "note": "(stereo not given)", "Potency": "inconclusive: 39.8 µM [activator, single point]"}, {"smiles": "CO[C@H]1OC[C@@]2(C)[C@@H]3C4=C(CN2C(=O)OC(C)(C)C)[C@H](C)[C@H](CO)[C@H](CO)[C@H]4CC[C@H]13", "Potency": "inconclusive: 39.8 µM [activator, single point]"}, {"smiles": "O=C(c1ccc(Br)o1)N1CCN=C1SCc1cccc(F)c1", "Potency": "inconclusive: 39.8 µM [inhibitor, single point]"}, {"smiles": "CC1CN(C(=O)N2CCC(C(=O)NC3CCCCCC3)CC2)c2ccccc2O1", "note": "(stereo not given)", "Potency": "active: 7.94 µM"}, {"smiles": "CCOC(=O)c1c(NC(=O)COc2cccc3c2CCN(Cc2ccc(F)cc2)C3=O)sc2c1CCC2", "Potency": "inconclusive: 3.98 µM [inhibitor, full curve]"}, {"smiles": "CN(C)c1ccc(NC(=O)CSC2=Nc3ccccc3C3=NC(CC(=O)NCc4ccccc4)C(=O)N23)cc1", "note": "(stereo not given)", "max response, negative = inhibition": "inactive: 23.3%"}, {"smiles": "O=c1c(-c2nc3ccccc3s2)cccn1Cc1ccc(Cl)c(Cl)c1", "Potency": "inconclusive: 39.8 µM [inhibitor, single point]"}, {"smiles": "COc1ccc(-c2noc(-c3ccc(NC(C)c4ccccc4)c([N+](=O)[O-])c3)n2)cc1OC", "note": "(stereo not given)", "Potency": "active: 12.6 µM"}, {"smiles": "COc1cc(NS(=O)(=O)c2ccc3oc(=O)c4ncn(C)c4c3c2)cc(OC)c1", "Potency": "inconclusive: 39.8 µM [activator, single point]"}, {"smiles": "COc1ccccc1CNC(=O)CCC1N=C2c3ccccc3N=C(SCC(=O)NCCc3ccc(OC)c(OC)c3)N2C1=O", "note": "(stereo not given)", "Potency": "inconclusive: 39.8 µM [activator, single point]"}, {"smiles": "O=c1cc(-c2ccccc2)[nH]c2nc3ccccc3n12", "Potency": "inconclusive: 39.8 µM [inhibitor, single point]"}, {"smiles": "COc1cccc(NC(=O)c2cc3c(=O)n(Cc4cccnc4)ccc3nc2C)c1", "max response, negative = inhibition": "inactive: 13.6%"}, {"smiles": "COc1cc(CN(C(=O)c2oc3ccccc3c2C)C2CCS(=O)(=O)C2)cc(OC)c1OC", "note": "(stereo not given)", "max response, negative = inhibition": "inactive: 12.6%"}, {"smiles": "Cc1cc(C)cc(N(CC(=O)N2CCC(C)CC2)S(=O)(=O)c2ccccc2)c1", "Potency": "inconclusive: 31.6 µM [activator, single point]"}, {"smiles": "CC(C)[C@H](NC(=O)OC(C)(C)C)c1nnc(S(=O)(=O)Cc2c(F)cccc2Cl)o1", "Potency": "active: 5.01 µM"}, {"smiles": "COc1ccccc1-n1c(SCC(=O)Nc2ccc(C)cc2)nc(O)cc1=O", "max response, negative = inhibition": "inactive: -10.5% and inactive: 5.12%"}, {"smiles": "COc1cc(/C=C(/C#N)c2ccccc2)ccc1Oc1ccc([N+](=O)[O-])cn1", "Potency": "inconclusive: 31.6 µM [inhibitor, single point]"}, {"smiles": "O=C(c1ccc(-c2cc3ccccc3oc2=O)cc1)N1CCN(c2ccc(Cl)cc2[N+](=O)[O-])CC1", "Potency": "inconclusive: 39.8 µM [inhibitor, single point]"}, {"smiles": "O=C(O)c1ccccc1-c1c2ccc(=O)cc-2oc2cc(O)ccc12", "Potency": "inconclusive: 11.2 µM [inhibitor, partial curve]"}]}]}
